Results taken from the supplement of paper PMC7826260.
This is one part of the list. The data describe in vitro nicking of single-stranded DNA by Rep domains (3 µM enzyme, 1 h, 37 °C); shown is the middle of each 90-letter strand. Uncut reads are compared with the no-enzyme pool on a log2 scale; more negative means more cut, near 0 not cut, and no call is made. The scaling is to total reads; uncut strands gain when others are lost, and binding without cutting may add a little.

Tests used:
Experiment in all cases: uncleaved DNA left, log2 of reads against the no-enzyme library (log2 ratio); higher = less cleavage (more negative = more Rep cleavage of the k-mer); sequences stand for … in CTCGTCCG…ACCGGAGA
[1] = test system: T1, Rep nickase domain of Muscovy duck circovirus
T1 sequence (residues 1-111 of Rep, tag left off): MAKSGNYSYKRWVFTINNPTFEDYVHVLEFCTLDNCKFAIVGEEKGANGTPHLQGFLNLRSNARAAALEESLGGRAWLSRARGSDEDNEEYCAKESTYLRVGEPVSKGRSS
Method: (§1)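 A pool of 90-nt single-stranded DNAs with seven random bases just before the constant AC of the nick site (name = the seven bases) was cut by 3 µM recombinant His6-SUMO-tagged Rep nickase domain (300 nM DNA, 50 mM HEPES pH 8.0, 50 mM NaCl, 1 mM MnCl2, 1 h, 37 °C, three replicates). Uncut DNA was amplified and sequenced.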

[2] = test system: T2, Rep nickase domain of banana bunchy top virus
T2 sequence (residues 1-94 of Rep, tag left off): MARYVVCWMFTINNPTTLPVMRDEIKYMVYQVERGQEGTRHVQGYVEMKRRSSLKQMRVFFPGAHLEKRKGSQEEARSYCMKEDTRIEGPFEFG
Method: as §1

[3] = test system: T3, Rep nickase domain of cabbage leaf curl virus
T3 sequence (residues 1-116 of Rep, tag left off): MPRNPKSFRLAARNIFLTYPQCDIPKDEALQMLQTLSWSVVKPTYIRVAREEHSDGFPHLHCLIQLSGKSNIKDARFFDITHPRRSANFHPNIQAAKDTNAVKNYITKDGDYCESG
Method: as §1

[4] = test system: T4, Rep nickase domain of chickpea chlorotic dwarf virus
T4 sequence (residues 1-124 of Rep, tag left off): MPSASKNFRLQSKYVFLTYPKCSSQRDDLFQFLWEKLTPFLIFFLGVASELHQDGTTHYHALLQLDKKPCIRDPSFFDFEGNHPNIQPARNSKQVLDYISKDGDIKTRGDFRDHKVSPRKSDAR
Method: as §1

[5] = test system: T5, Rep nickase domain of faba bean necrotic yellows virus
T5 sequence (residues 1-98 of Rep, tag left off): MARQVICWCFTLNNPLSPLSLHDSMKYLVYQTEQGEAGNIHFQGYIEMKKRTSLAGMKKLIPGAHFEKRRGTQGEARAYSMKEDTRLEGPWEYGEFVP
Method: as §1

[6] = test system: T6, Rep nickase domain of maize striate mosaic virus
T6 sequence (residues 1-117 of Rep, tag left off): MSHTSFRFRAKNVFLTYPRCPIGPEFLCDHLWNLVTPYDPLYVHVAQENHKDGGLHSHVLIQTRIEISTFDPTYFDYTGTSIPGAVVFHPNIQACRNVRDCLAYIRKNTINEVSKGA
Method: as §1

[7] = test system: T7, Rep nickase domain of porcine circovirus 2
T7 sequence (residues 2-116 of Rep, tag left off): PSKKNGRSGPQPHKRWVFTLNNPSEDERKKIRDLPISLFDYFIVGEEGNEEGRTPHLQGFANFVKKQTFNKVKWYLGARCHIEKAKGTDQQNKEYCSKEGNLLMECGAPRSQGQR
Method: as §1

[8] = test system: T8, Rep nickase domain of tomato golden mosaic virus
T8 sequence (residues 1-124 of Rep, tag left off): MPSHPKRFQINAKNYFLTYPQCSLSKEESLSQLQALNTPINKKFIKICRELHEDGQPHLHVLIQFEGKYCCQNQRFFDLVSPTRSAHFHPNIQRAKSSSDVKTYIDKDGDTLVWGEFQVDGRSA
Method: as §1

[9] = test system: T9, Rep nickase domain of tomato yellow leaf curl virus
T9 sequence (residues 1-136 of Rep, tag left off): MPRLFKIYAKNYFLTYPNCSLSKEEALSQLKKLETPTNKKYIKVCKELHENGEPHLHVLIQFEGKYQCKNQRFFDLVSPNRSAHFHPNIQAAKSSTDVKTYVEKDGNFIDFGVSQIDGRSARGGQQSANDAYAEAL
Method: as §1

[10] = test system: T10, Rep nickase domain of wheat dwarf virus
T10 sequence (residues 1-137 of Rep, tag left off): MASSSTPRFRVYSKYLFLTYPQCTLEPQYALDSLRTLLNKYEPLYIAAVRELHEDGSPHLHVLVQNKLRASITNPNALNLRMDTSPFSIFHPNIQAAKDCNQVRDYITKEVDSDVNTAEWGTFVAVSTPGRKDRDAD
Method: as §1

| Sequence | uncleaved DNA left (log2) [1] | uncleaved DNA left (log2) [2] | uncleaved DNA left (log2) [3] | uncleaved DNA left (log2) [4] | uncleaved DNA left (log2) [5] | uncleaved DNA left (log2) [6] | uncleaved DNA left (log2) [7] | uncleaved DNA left (log2) [8] | uncleaved DNA left (log2) [9] | uncleaved DNA left (log2) [10] |
| --- | --- | --- | --- | --- | --- | --- | --- | --- | --- | --- |
| AGGTCGT | -0.0947 | 0.019 | -0.136 | -0.299 | -0.0682 | -0.586 | -0.38 | -0.0172 | 0.0609 | 0.085 |
| GCTCTTA | -0.0776 | -0.0132 | 0.144 | -0.105 | 0.0851 | 0.536 | -0.133 | 0.138 | 0.0404 | 0.0508 |
| GAGTGAC | 0.00189 | 0.108 | 0.353 | 1.42 | -0.0427 | 1.8 | 0.0656 | 0.0989 | 0.102 | 0.179 |
| TAATCTT | -3.81 | -3.06 | -4.95 | -3.62 | -0.539 | -3.43 | -4.59 | -4.74 | -3.47 | -4.81 |
| GATTCTG | -0.0423 | -0.0855 | 0.0998 | 0.68 | -0.0155 | 0.922 | 0.149 | 0.0522 | -0.0918 | -0.00811 |
| CGACCAT | -0.0083 | 0.0201 | 0.214 | 0.576 | 0.048 | 0.538 | -0.0249 | 0.067 | 0.0654 | 0.106 |
| GCATGCT | -0.415 | -0.0701 | -0.818 | -0.945 | 0.0279 | -0.841 | -0.778 | -0.15 | 0.0743 | -0.0591 |
| GGTGCTT | 0.0591 | -0.0249 | 0.717 | 1.58 | 0.0436 | 2.13 | 0.0176 | -0.0207 | 0.0861 | 0.0913 |
| GATCAGG | 0.061 | 0.0625 | 0.425 | 1.17 | -0.0695 | 1.13 | 0.23 | 0.0845 | 0.053 | 0.0459 |
| TGGCAGG | 0.15 | 0.0666 | 0.357 | 0.756 | 0.153 | 0.597 | 0.177 | 0.0766 | -0.0564 | 0.14 |
| GCAAATT | 0.0195 | -0.0683 | 0.0244 | -1.27 | 0.0663 | 0.0041 | -0.29 | 0.0514 | -0.0272 | 0.0729 |
| GGATGAC | 0.0315 | 0.0373 | 0.808 | 1.92 | -0.00282 | 2.14 | 0.114 | 0.0149 | 0.0536 | 0.144 |
| TCGGGGG | 0.0544 | 0.00288 | 0.173 | 0.236 | 0.049 | 0.15 | 0.235 | 0.0205 | 0.0629 | -0.0432 |
| AGACCTT | 0.149 | 0.207 | 0.748 | 1.39 | 0.105 | 2.13 | 0.108 | -0.0641 | 0.171 | 0.337 |
| CATAGGG | 0.0132 | -0.0484 | -0.595 | -0.596 | 0.0354 | -1.16 | 0.0603 | 0.0276 | 0.0271 | -0.177 |
